The record followed here is PubChem BioAssay AID463173 (ICCB-Longwood Screening Facility, Harvard Medical School, 2010).

The whole screen tested about 52,000 compounds, of which about 4,300 (8.3%) were called active. Cut-off read from the data, not from the text of the source: active = survival mostly below about 52% (no sharp cut-off); inactive = mostly above about 56%. The list shows a part of the results.

This test concerns DeltatarO mutant. Put plainly: S. aureus survival, RN4220 and DeltatarO strains – OD600, teichoic acid synthesis inhibitors, primary screen (AID 463173). The note with it: S. aureus RN4220 wild type/DeltatarO growth, OD600, 18 h, active compounds read low, screened at 18.75 µg/mL (by protocol).
`Cc1nc(C)c(C(=O)O)o1`: the survival was inactive: 89%.
Turning to `COc1ccc2c(c1)Cc1sc(NC(=O)c3cccc(C)c3)nc1-2`, the survival was active: 18%.
Regarding `O=C(c1cc2nc(-c3ccco3)cc(C(F)(F)F)n2n1)N1CCCc2ccccc21`, the survival was inactive: 117%.
On to `COc1ccc(S(=O)(=O)c2c(C(=O)c3ccc(C)c(C)c3)cnc3ccc(F)cc23)cc1`, for which the survival is inactive: 80%.
Then `CC(C)c1ccc(OCC(=O)Nc2c(C(=O)c3ccc(F)cc3)oc3ccccc23)cc1`, with active: 65%.
Next, `Cc1ccc(-n2nnc(-c3nc(-c4cccs4)no3)c2N)c(C)c1`: inactive: 101%.
Next, `Cc1nonc1OCCN1CCN(c2cnn(-c3ccccc3)c(=O)c2Cl)CC1`: inactive: 88%; `CN1C(=O)/C(=C\C2(C)N3CC4(C)CN2CC(C)(C3)C4=O)c2ccccc21` (stereo unspecified): inactive: 69%.
As to `CC(C)(C)NC(=O)CSc1nc2ccccc2c(=O)[nH]1`, the survival was inactive: 105%.
`Cc1c(C)n(C)c2ccc(C(=O)NCc3cccc(F)c3)cc12`: the survival was inactive: 72%.
Then `COc1cc2c(cc1NC(=O)COc1ccc(Cl)cc1Br)oc1ccccc12`, with inactive: 51%.
Then `CCOC(=O)CSc1nnc2n(-c3ccccc3)c(=O)c3c4c(sc3n12)CC(C(C)(C)C)CC4` (stereo unspecified), with active: 46%; and `O=C(NCC1CC1)C1C2C3C4CC5C3C5C4C12` (stereo unspecified), with inactive: 93%; and `Cc1cccc(C)c1NC(=O)CS(=O)CC(=O)Nc1ccc(F)c(F)c1` (stereo unspecified), with inactive: 93%.
As for `COc1ccccc1CNC(=O)Cn1ncn2c(cc3sccc32)c1=O`, the survival was inactive: 70%.
Regarding `Cc1ccc(Nc2c(-c3ccsc3)nc3c(C)cccn23)cc1`, the survival is active: 20%.
Take `COc1ccc(S(=O)(=O)NCc2cccn2Cc2cccc(C)c2)cc1`: the survival is inactive: 84%.
Next, `CCCCCSc1nc2sc3c(c2c(=O)n1-c1ccc(OC)cc1)CCN(C(C)=O)C3`: active: -18%; `COc1ccccc1NC(=O)CC(c1cc(OC)c(OC)c(OC)c1)N1Cc2ccccc2C1=O` (stereo unspecified): inactive: 80%.
Then `Clc1ccc(C(c2ccccc2)c2c[nH]c3ccccc23)s1` (stereo unspecified), with active: -3%; and `Cc1ccc2[nH]c3c(=O)n(CC(=O)N4CCCCC4)ncc3c2c1`, with inactive: 84%.
Turning to `Cc1ccc(C)n1-c1nnc(N2CCCC(C(=O)NCc3cccc(F)c3)C2)s1` (stereo unspecified), the survival was inactive: 82%.
For the compound `COc1ccc(OC)c(CNC(=O)C2CCN(c3nc4ccccc4nc3C(F)(F)F)CC2)c1`, the survival is inactive: 106%.
For the compound `CCc1ccccc1Nc1nc2ccccc2c2nncn12`, the survival was inactive: 58%.
Next, `CCc1ccc(S(=O)(=O)c2cn(Cc3ccccc3)c3cc(F)c(F)cc3c2=O)cc1`: inactive: 74%; `Cc1ccc(-n2nc(CO)c(C(=O)NCc3cccnc3)n2)cc1`: inactive: 90%.
Next, `COc1cc(OC)cc(-c2cc3nc(C)c(CCC(=O)NCc4ccc(Cl)cc4)c(C)n3n2)c1`: inactive: 113%; `O=C(COc1cccc(-n2cnnn2)c1)N1CCOCC1`: inactive: 81%; `Cc1cccc(N2CCN(C(=O)Cn3ncc4c5ccccc5n(C)c4c3=O)CC2)c1C`: inactive: 73%.
Next, `COc1ccc(C(=O)Nc2ccc(-n3nncc3-c3ccccc3)cc2)cc1OC`: inactive: 123%.
As for `Cc1cc2oc(=O)cc(C)c2c2occ(-c3ccc(Cl)cc3)c12`, the survival was inactive: 72%.
As to `COc1ccc2nc(NC(=O)c3nc(SC(C)C)ncc3Cl)sc2c1`, the survival was inactive: 93%.
In the case of `CCC(=O)N1CCc2cc(Br)cc(S(=O)(=O)CCC(=O)N3CCN(c4ccccc4F)CC3)c21`, the survival is inactive: 80%.
Then `O=C(NC1CCCC1)c1cc(Nc2cccc(C(F)(F)F)c2)nc2ccccc12`, with inactive: 77%; and `NC(=O)c1nc(Nc2ccccc2)sc1NC(=O)c1ccccc1Br`, with inactive: 95%; and `CCOC(=O)c1cccc(NS(=O)(=O)c2ccc(-c3cnc(C4CC4)o3)cc2)c1`, with inactive: 99%.
As to `O=C(C1CCN(S(=O)(=O)Cc2ccccc2)CC1)N1CCN(c2ccccc2)CC1`, the survival was inactive: 68%.
With `Cc1ccc(OCC(=O)Nc2ccc3nc(SCC(=O)N4CCOCC4)sc3c2)cc1`, the survival was inactive: 86%.
Next, `COc1ccccc1NC(=O)CSc1ncc2c(n1)-c1cc(Cl)ccc1N(Cc1ccccc1)S2(=O)=O`: inactive: 83%.
Take `CCCCc1c(C)nc2c(-c3ccc(OC)cc3)c(C)[nH]n2c1=O`: the survival was active: 7%.
Next, `Cn1c(CN2CCCCC2)nc2cc(NC(=O)c3ccccc3Cl)ccc21`: inactive: 76%; `CCCCNC(=O)CCCn1c(=O)c2ccccc2n(Cc2cccc(Cl)c2)c1=O`: inactive: 100%.
Consider `N#Cc1c(N)n(-c2cccc(Cl)c2)c2nc3ccccc3nc12`, for which the survival is inactive: 90%.
Turning to `COc1cccc(Nc2cc(C)nc3nc(-c4ccc(Cl)cc4)nn23)c1`, the survival is inactive: 71%.
Next, `COc1ccc(NCc2cc3cc4c(cc3n(CC(=O)Nc3cc(C)cc(C)c3)c2=O)OCO4)cc1`: inactive: 67%; `Cc1nn(C)c2c1c(-c1ccccc1)cc(=O)n2CC(=O)Nc1ccccc1C(F)(F)F`: inactive: 94%; `C=C(C)Cn1cnc2ccccc21`: inactive: 76%.
Next, `CCOC(=O)COc1ccccc1C1C(C(=O)OC)=C(C)NC2=C1C(=O)c1ccccc12` (stereo unspecified): active: 39%.
Next, `O=C(NCCCc1nc2ccccc2n1Cc1c(F)cccc1Cl)C1CCCCC1`: inactive: 93%; `Cc1nc2c(c(C)c1CCC(=O)NCc1ccccc1)c(=O)n(C)c(=O)n2C`: inactive: 104%; `COCCCNC(=O)CSc1nc2c(sc3ccccc32)c(=O)n1CCc1ccccc1`: inactive: 72%.
As to `COc1cc(NC(=O)CSc2nc3ccccc3nc2Cc2ccc(Cl)cc2)cc(OC)c1`, the survival is inactive: 79%.
Next, `CCOC(=O)c1cccc(NC(=O)c2cc3c(-c4cccc(OC)c4)nn(C)c3s2)c1`: inactive: 58%.
Next, `Cc1ccc(S(=O)(=O)c2nc(S(C)(=O)=O)sc2N(C)Cc2ccccc2)cc1`: inactive: 84%; `Cc1cccc(NC(=O)C2CCC(CNS(=O)(=O)c3csc(C(N)=O)c3)CC2)c1C` (stereo unspecified): inactive: 75%; `COc1ccc(N(Cc2cccs2)C(=O)c2ccc(OCC(C)C)cc2)cc1`: inactive: 105%.
`CCCc1nn2c(=O)cc(COC(=O)c3ccccc3NC(=O)c3cccs3)nc2s1`: the survival was inactive: 55%.
Consider `COc1cc(C2c3c(oc4ccccc4c3=O)C(=O)N2c2ccccn2)cc(OC)c1OC` (stereo unspecified), for which the survival is inactive: 146%.
Next, `O=C(O)C(c1ccccc1)N1CCOCC1` (stereo unspecified): inactive: 92%.
Turning to `Cc1cccc(NC(=O)C2CCC(CNS(=O)(=O)c3ccc(Br)s3)CC2)c1` (stereo unspecified), the survival is active: 52%.
Next, `Cc1ccc(C)c(C(=O)c2c(N)c(-c3nc(-c4ccc5c(c4)OCO5)cs3)c3ccccn23)c1`: inactive: 80%; `COc1cccc(C2CC(=O)N(c3ccc(F)cc3)C3=C2C(=O)OC3)c1OC` (stereo unspecified): inactive: 75%.
Next, `COc1cc(NC(=O)Nc2cccc(-c3noc(C)n3)c2)cc(OC)c1OC`: inactive: 128%; `Cc1cn2c(=O)cc(COc3ccc(Cl)cc3)nc2s1`: inactive: 53%; `Cc1ccc(Cl)cc1NC(=O)Cc1ccc(-n2c(C)nc3cccnc32)cc1`: inactive: 116%.
Then `CCOc1ccc(-n2c(=O)c3c(C)c(C)sc3n(CC(=O)N(CC)Cc3ccccc3)c2=O)cc1`, with active: 45%; and `CCOc1ccc(CNc2nc3nc(C)c(Cc4ccccc4)c(=O)n3[nH]2)cc1`, with inactive: 81%; and `CCc1ccc(CNC(=O)C2Cc3cc(S(=O)(=O)N4CCCCCC4)ccc3N2C(C)=O)cc1` (stereo unspecified), with inactive: 84%.
`COc1ccc2c(c1)CC(C(=O)Nc1cc(Cl)ccc1C)CO2` (stereo unspecified): the survival was inactive: 80%.
For the compound `Cc1ccc(Cl)cc1NC(=O)c1oc2ccc(S(=O)(=O)N(C)C3CCCCC3)cc2c1C`, the survival was inactive: 78%.
Next, `Cc1ccc(S(=O)(=O)c2cn(Cc3cccc(C)c3)c3cc4c(cc3c2=O)OCO4)cc1`: inactive: 101%; `Cc1cccc(NC(=S)N2CCC(NC(=O)c3ccco3)CC2)c1`: inactive: 92%; `COc1ccc(CNCCNC(=O)c2cccs2)c(OC)c1OC`: inactive: 97%.
Then `Cc1nn(C(C)C(=O)N2CCN(c3ccc(Cl)cc3)CC2)c(=O)c2cc3occc3n12` (stereo unspecified), with inactive: 60%.
Consider `CCc1nonc1NC(=O)c1oc2ccc(Br)cc2c1C`, for which the survival is inactive: 77%.
Turning to `CCc1ccc(-n2c(=O)c3c4c(sc3n(CC(=O)N3CCC(C)CC3)c2=O)CCC4)cc1`, the survival was inactive: 83%.
Take `COC(=O)CN(C#N)c1nc(SC)nc(N(C)C)n1`: the survival is active: 52%.
Consider `Cc1ccc(Cl)cc1NC(=O)c1oc2ccc(S(=O)(=O)N3CCCCC3)cc2c1C`, for which the survival was inactive: 74%.
As for `Cc1oc2ncnc(N3CCCCC3)c2c1C(=O)N1CCN(c2cccc(Cl)c2)CC1`, the survival is inactive: 94%.
Next, `CCCN1C(=O)C2(c3ccccc31)c1c(oc3ccc(F)cc3c1=O)C(=O)N2CCCOC(C)C` (stereo unspecified): inactive: 93%; `c1coc(-c2nc3n(n2)C2(CCCCC2)[C@@H]2CCCC[C@@H]2N3)c1`: inactive: 89%.
Then `CC(C)(C)n1nnnc1C(c1cccs1)N1CCCc2ccccc21` (stereo unspecified), with inactive: 83%; and `CN(C(=O)CSc1nnc(-c2ccccc2F)o1)C1CCCCC1`, with inactive: 58%.
Take `Oc1ccc(CNc2ccccc2Cl)c2cccnc12`: the survival was inactive: 115%.
Consider `Cc1ccc2c(c1)c(=O)c(C(=O)c1ccc3c(c1)OCO3)cn2Cc1ccc(Cl)cc1`, for which the survival is active: 46%.
Take `CCOc1ccc(CN(C(=O)c2cc(=O)c3cc(C)cc(C)c3o2)C2CCS(=O)(=O)C2)cc1` (stereo unspecified): the survival is inactive: 56%.
Then `COc1cc(NC(=O)CCc2c(C)nc3cc(-c4ccccc4)nn3c2C)cc(OC)c1OC`, with inactive: 65%; and `O=C1CSC(=S)N1Nc1ccccc1`, with inactive: 80%.
Regarding `CCC(CC)C(=O)Nc1nnc(SCc2cc(=O)n3cccc(C)c3n2)s1`, the survival was inactive: 80%.
Then `CSc1ccc(/C=C/c2nc3ccccc3n2S(=O)(=O)c2cccc(Cl)c2)cc1`, with inactive: 72%.
Then `O=C(NCCc1ccc(Cl)cc1)C(=O)NCC(c1ccco1)S(=O)(=O)c1ccc(Cl)cc1` (stereo unspecified), with inactive: 94%.
